Laboratory results from PMC6018503.
Results are given in words; binding and its absence hold for the method and conditions named. In cells and extracts the contact can be indirect. Some binding calls cover weakened binding; strength is not graded here.

B1: OsRFC1 Δ1–642 (domain or fragment, UniProt Q2R2B4 643-1021)
chain: LSQSVVKYDDIRQRLNSSTKDEDISPFTAVDKLFGFNGGRLRMDERIDLSMSDPDLVPLIIQENYINYRPITVGKDDSGVKRMNFLARAAESIADADIVNVQIRRYRQWQLSQAACLSSSIVPAALMHGNREILEAGERNFNRFGGWLGKYSTTNKNIRLLEDAHSHILASQQANLDRESLRLDYLTLLLRQLTDPLKTMPKDEAVQKVVEFMDTYSLSQEDFDTIVELSKFKGHPNPMDGIQPAVKSALTKAYKQGSSSRVVRAADLVNIPGMKKPLKKRVAAILEPVGESLPEENGVASSEGDEEDSSDAENNDELVPGDTKPKLDLQSDKKKGIQVQLDLKSNGNGLNSKKMPAGRSKASGSAGKAAGGSGGKRKR
B2: OsRFC1 Δ1–721 (domain or fragment, UniProt Q2R2B4 722-1021)
chain: VKRMNFLARAAESIADADIVNVQIRRYRQWQLSQAACLSSSIVPAALMHGNREILEAGERNFNRFGGWLGKYSTTNKNIRLLEDAHSHILASQQANLDRESLRLDYLTLLLRQLTDPLKTMPKDEAVQKVVEFMDTYSLSQEDFDTIVELSKFKGHPNPMDGIQPAVKSALTKAYKQGSSSRVVRAADLVNIPGMKKPLKKRVAAILEPVGESLPEENGVASSEGDEEDSSDAENNDELVPGDTKPKLDLQSDKKKGIQVQLDLKSNGNGLNSKKMPAGRSKASGSAGKAAGGSGGKRKR
B3: OsRFC1 with the region between 722 and 1,021 aa deleted (domain or fragment, UniProt Q2R2B4 1-721)
chain: MSSDIRKWFMKAQDKNGGAAKPAGTTALAKKPVLSIPEKPSAAPSMAACDQDCSARRKTSKYFASKTEKEEDTSAGKGTGRGLPKRKLQKVSDELEDDMKPLPAKEVHKEEEDDDDDDFVAPSKRKTPVKPPPSKKLKGASTAEAHGKTGLDDDNEDKMDEDAKTPSKASGSGRGRGRGRGRGGRGAGAAHGKTIGLDDDGEEDKMDEDAKTPSKAAGRGRGGASGGRGRGGGGRGFMNFGERKDPPHKGEKEVPEGAPDCLTGLTFVISGTLDSLEREEATDLIKRYGGRVTGSISKKTNYLLADEDVGGVKSNKAKELGVPFLTEDGLFDMIRKSKPAKATVAKHQSDKNSEKQQKSPMKSSPVKVERRDGNQITTGKNISPKSNKGSASIDNQKVNIVDRGSLQWTEKYRPKVPNDIVGNQSMVKQLHDWLRSWEDQFLHSGQKGKGKKQADSGAKKAVLLSGPPGIGKTTTAKVVSQMLGLQAIEVNASDSRGKADSKIEKGVGGSTSNSIKELISNATLNYSNNRLKRPKAVLVMDEVDGMSAGDRGGVADLIASIKMSKIPIICICNDRYSQKLKSLVNYCLLLNFRKPTKQQMGKRLMEIAKKEGLQAQENAMEELAERVHGDIRMALNHLQYMSLSQSVVKYDDIRQRLNSSTKDEDISPFTAVDKLFGFNGGRLRMDERIDLSMSDPDLVPLIIQENYINYRPITVGKDDSG
B4: OsRFC2 Δ1–221 (domain or fragment, UniProt Q9FXM3 222-339)
chain: LFGSSISSTDLISVSGAIPEDVVKSLLASCKSGEFDVANKEVNNIIADGYPVSQLISQFLDVIVNADDIPDEQKARICKKLGEADKCLVDGADEYLQLLDVASETIRALFDMPQTLVF
B5: OsRFC3 Δ322–361 (domain or fragment, UniProt Q6YZ54 1-321)
chain: MAGATAATPMDIDAAAPPPGAAAKGKAPLSSTPGGRAAPWVEKYRPQSLGDVAAHRDIVDTIDRLTNENRLPHLLLYGPPGTGKTSTILAVARKLYGSQYGNMILELNASDERGIDVVRQQIQDFASARSLSFGAKQSVKMVLLDEADAMTKDAQFALRRVIEKHTRSTRFALICNHVNKIIPALQSRCTRFRFAPLDGTHVRERLKHIIQSEGLDVDDGGLTALVRLSNGDMRKALNILQSTHMASKQITEEAVYLCTGNPMPKDIEQIAYWLLNESFSTSFKCISDMKMRKGLALVDIIREVTMFVFKIQMPSDVRIKL
B6: OsRFC3 Δ62–361 (domain or fragment, UniProt Q6YZ54 1-61)
chain: MAGATAATPMDIDAAAPPPGAAAKGKAPLSSTPGGRAAPWVEKYRPQSLGDVAAHRDIVDT
B7: OsRFC1 Δ640–1021 (domain or fragment, UniProt Q2R2B4 1-639)
chain: MSSDIRKWFMKAQDKNGGAAKPAGTTALAKKPVLSIPEKPSAAPSMAACDQDCSARRKTSKYFASKTEKEEDTSAGKGTGRGLPKRKLQKVSDELEDDMKPLPAKEVHKEEEDDDDDDFVAPSKRKTPVKPPPSKKLKGASTAEAHGKTGLDDDNEDKMDEDAKTPSKASGSGRGRGRGRGRGGRGAGAAHGKTIGLDDDGEEDKMDEDAKTPSKAAGRGRGGASGGRGRGGGGRGFMNFGERKDPPHKGEKEVPEGAPDCLTGLTFVISGTLDSLEREEATDLIKRYGGRVTGSISKKTNYLLADEDVGGVKSNKAKELGVPFLTEDGLFDMIRKSKPAKATVAKHQSDKNSEKQQKSPMKSSPVKVERRDGNQITTGKNISPKSNKGSASIDNQKVNIVDRGSLQWTEKYRPKVPNDIVGNQSMVKQLHDWLRSWEDQFLHSGQKGKGKKQADSGAKKAVLLSGPPGIGKTTTAKVVSQMLGLQAIEVNASDSRGKADSKIEKGVGGSTSNSIKELISNATLNYSNNRLKRPKAVLVMDEVDGMSAGDRGGVADLIASIKMSKIPIICICNDRYSQKLKSLVNYCLLLNFRKPTKQQMGKRLMEIAKKEGLQAQENAMEELAERVHGDIRMALNHLQ

Assays:
Experiment in all cases: split reporter; BiFC; YFP^N (aa 1-155) and YFP^C (aa 156-239) fusions (pCAMBIA-SPYNE, pCAMBIA-SPYCE) co-expressed in tobacco (Nicotiana benthamiana) leaf epidermal cells through Agrobacterium GV3101; confocal microscopy of YFP; only the two named fusions
[1] = target: OsRFC2 (rice (Oryza sativa)) (UniProt Q9FXM3)
[2] = target: T1, OsRFC3 (rice (Oryza sativa)) (UniProt Q6YZ54)
T1 sequence: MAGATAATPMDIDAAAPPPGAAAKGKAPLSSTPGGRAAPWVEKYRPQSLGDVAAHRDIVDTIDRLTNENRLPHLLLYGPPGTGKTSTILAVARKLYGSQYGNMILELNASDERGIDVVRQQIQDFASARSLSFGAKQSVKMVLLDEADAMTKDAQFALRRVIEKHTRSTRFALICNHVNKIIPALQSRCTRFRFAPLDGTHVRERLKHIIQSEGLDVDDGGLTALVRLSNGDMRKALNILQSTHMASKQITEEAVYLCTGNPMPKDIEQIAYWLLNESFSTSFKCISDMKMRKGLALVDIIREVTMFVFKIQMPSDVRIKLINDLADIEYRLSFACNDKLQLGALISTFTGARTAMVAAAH

[3] = target: T2, OsRFC4 (rice (Oryza sativa)) (UniProt Q7XRX1)
T2 sequence: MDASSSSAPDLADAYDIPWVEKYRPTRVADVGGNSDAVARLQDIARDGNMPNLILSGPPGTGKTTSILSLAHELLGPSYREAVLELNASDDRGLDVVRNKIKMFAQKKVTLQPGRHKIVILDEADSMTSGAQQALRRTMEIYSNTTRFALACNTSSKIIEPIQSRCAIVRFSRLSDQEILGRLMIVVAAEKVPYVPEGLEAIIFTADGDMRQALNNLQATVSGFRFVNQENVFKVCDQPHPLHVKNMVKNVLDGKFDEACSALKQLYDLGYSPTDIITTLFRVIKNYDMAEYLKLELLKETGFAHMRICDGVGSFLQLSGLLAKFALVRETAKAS

[4] = target: T3, OsRFC5 (rice (Oryza sativa)) (UniProt Q852K3)
T3 sequence: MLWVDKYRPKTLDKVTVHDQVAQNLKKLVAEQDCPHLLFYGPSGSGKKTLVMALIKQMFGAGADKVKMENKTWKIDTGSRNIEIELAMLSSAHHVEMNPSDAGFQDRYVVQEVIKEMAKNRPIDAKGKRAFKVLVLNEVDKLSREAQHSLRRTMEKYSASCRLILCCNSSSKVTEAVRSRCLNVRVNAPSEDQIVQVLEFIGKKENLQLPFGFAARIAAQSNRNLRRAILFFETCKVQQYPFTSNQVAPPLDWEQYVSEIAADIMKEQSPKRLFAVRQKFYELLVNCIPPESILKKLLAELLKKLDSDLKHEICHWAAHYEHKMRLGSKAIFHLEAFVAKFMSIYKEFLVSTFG

[5] = target: T4, OsRFC1 (rice (Oryza sativa)) (UniProt Q2R2B4)
T4 sequence: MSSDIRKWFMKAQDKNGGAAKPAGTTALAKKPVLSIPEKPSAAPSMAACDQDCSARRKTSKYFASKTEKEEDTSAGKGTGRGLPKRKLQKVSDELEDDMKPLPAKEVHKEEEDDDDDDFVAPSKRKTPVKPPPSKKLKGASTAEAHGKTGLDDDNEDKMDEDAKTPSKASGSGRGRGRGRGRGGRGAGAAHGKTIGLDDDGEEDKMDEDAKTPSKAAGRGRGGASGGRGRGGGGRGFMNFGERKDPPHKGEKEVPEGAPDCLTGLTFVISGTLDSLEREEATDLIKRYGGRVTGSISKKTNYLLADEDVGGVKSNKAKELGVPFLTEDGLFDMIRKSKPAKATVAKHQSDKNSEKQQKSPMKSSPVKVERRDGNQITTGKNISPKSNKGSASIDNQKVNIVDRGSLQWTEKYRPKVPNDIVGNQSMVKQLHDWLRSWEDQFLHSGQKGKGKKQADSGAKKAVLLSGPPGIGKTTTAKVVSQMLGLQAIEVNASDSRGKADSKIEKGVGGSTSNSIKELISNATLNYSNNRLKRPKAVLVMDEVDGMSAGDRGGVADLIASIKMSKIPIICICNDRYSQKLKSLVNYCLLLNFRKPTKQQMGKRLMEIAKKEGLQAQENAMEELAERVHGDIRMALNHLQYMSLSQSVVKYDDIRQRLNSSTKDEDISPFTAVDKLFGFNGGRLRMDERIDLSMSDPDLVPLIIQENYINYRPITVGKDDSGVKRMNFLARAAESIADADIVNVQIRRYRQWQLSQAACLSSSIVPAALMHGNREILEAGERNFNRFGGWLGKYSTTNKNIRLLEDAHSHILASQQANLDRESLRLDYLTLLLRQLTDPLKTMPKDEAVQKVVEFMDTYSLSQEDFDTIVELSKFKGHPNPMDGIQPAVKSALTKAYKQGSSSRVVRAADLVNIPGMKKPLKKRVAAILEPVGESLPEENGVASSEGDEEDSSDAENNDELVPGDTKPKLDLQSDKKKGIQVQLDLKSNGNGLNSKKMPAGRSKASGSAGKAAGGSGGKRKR

Row | Binder | binding [1] | binding [2] | binding [3] | binding [4] | binding [5]
1 | B1 | binds | binds | binds | binds | –
2 | B2 | binds | binds | binds | binds | –
3 | B3 | binds | binds | binds | binds | –
4 | B4 | – | binds | – | binds | binds
5 | B5 | no binding | – | binds | – | no binding
6 | B6 | no binding | – | binds | – | no binding
7 | B7 | no binding | no binding | no binding | no binding | –
